# Data published in PubChem BioAssay (NCATS).
# Where “and” joins values, the source holds several entries; their conditions need not be identical. Equal values may be shown once. Inconclusive means that the source gave no clear call. Such entries were picked first, then a sample of the others. For part of these data: Where the call is inconclusive, the potency comes from a doubtful curve fit. Calls of active or inactive are those of the source. Unless noted, calls come from the whole dose curve; as a rule, active = well fitted curve in the direction sought with a large enough effect; inconclusive = small, poorly fitted or top-dose-only effect, or another doubt; inactive = no such curve, though single readings can be large; an effect the other way counts as inactive or inconclusive. Where a SMILES comes first, the peptide text is derived from it. Bridges are numbered along the chain shown (N, C = ends). [ ]: non-standard residue; d: D form. The star is where a group is joined. X1 = CCC(C)C(N)C1=NC(C(=O)*)CS1; dOrn = NCCC[C@@H](N)C(=O)O
# Assays:
# [1] = target: Phospholipid hydroperoxide glutathione peroxidase GPX4 (Homo sapiens) (UniProt P36969); assay: Primary qHTS Assay for Inhibitors of Recombinant Selenoprotein Glutathione Peroxidase 4 (GPX4) (AID 1845192); note: nearly all actives have a fitted effect of over 65% in size; note: potency is the fitted concentration of half-maximal effect
# UniProt P36969, sequence (P36969 whole entry, looked up): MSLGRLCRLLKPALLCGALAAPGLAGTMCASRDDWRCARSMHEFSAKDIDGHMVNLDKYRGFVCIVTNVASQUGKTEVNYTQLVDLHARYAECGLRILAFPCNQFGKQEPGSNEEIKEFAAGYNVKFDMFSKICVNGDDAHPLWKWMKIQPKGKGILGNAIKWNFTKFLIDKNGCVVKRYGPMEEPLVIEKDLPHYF
# Method in brief: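 qHTS, GR-coupled: GPX4 200 nM + cpd 30 min RT → GSH 1 mM, NADPH 0.5 mM, GR 100 nM → CHP 0.5 mM start; fluor 340/450 at t0 and t15 min; no-enzyme wells as control.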
# Tov-21-G = assay: Primary qHTS to identify gynecologic anti-cancer compounds using libraries of approved drugs and bioactive compounds (AID 1345084); conditions: Gynecologic cancer cell panel viability, ATPlite luminescence, 48 h; activity change, negative = cytotoxicity: at 57.5 µM (top of the series); note: nearly all actives have a fitted effect of over 55% in size; note: potency is the fitted concentration of half-maximal effect
# Method in brief: (§1)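 In this quantitative HTS, cell killing is estimated from loss of ATP-dependent luciferase light. Cells see five compound concentrations over a 48 h exposure.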
# Tov112D = assay: as above; conditions: Gynecologic cancer cell panel viability, ATPlite luminescence, 48 h; activity change, negative = cytotoxicity: at 57.5 µM (top of the series)
# Method in brief: as §1
# [2] = qHTS of pediatric cancer cell lines to identify multiple opportunities for drug repurposing: Primary screen for LAN-5 cells (AID 1347100); note: potency is the fitted concentration of half-maximal effect
# Method in brief: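 Cells (500-1,000/well) in growth media were settled 5 h at 37 degrees C, then given compounds for 48 h. Viability was read as CellTiter-Glo luminescence. Primary runs used MIPE at 11 points (0.78 nM-46 µM) and NPC at 8 points (0.59 nM-46 µM); follow-ups used 11 points.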
# PA-1 = assay: Primary qHTS to identify gynecologic anti-cancer compounds using libraries of approved drugs and bioactive compounds (AID 1345084); conditions: Gynecologic cancer cell panel viability, ATPlite luminescence, 48 h; series mostly up to 57.5 µM; note: nearly all actives have a fitted effect of over 55% in size; note: potency is the fitted concentration of half-maximal effect
# Method in brief: as §1
# [3] = target: Cytochrome P450 2D6 (Homo sapiens) (UniProt P10635); assay: Cytochrome P450 family 2 subfamily D member 6 (CYP2D6) small molecule antagonists: luciferase biochemical (cell-free) qHTS assay (AID 1645840; active = well fitted curve in the direction sought with a large enough effect in the repeat runs; inconclusive = weak or mixed curves; inactive = no such curve, though single readings can be large; an effect the other way counts as inactive or inconclusive; note: potency is the fitted concentration of half-maximal effect; nearly all actives have a fitted effect of over 55% in size)
# UniProt P10635, sequence (P10635 whole entry, looked up): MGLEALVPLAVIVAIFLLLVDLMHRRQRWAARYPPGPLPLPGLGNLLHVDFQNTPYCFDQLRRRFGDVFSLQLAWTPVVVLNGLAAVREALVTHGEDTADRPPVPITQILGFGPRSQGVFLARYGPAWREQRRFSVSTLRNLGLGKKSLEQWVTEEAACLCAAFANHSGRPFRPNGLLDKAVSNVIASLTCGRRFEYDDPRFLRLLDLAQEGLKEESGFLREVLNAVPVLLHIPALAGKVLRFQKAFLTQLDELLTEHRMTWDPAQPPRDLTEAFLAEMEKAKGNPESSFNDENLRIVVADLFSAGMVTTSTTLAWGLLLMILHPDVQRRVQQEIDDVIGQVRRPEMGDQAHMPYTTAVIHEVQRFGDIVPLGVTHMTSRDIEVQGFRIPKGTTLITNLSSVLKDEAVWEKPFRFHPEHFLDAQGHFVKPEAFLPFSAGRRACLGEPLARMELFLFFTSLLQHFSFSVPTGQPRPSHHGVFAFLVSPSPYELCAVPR
# Method in brief: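 P450-Glo CYP2D6 system: proluciferin substrate converted by enzyme to luciferin, read by luminescence proportional to activity. Enzyme-substrate mix with compound 10 min at room temperature, then NADPH regeneration 1 h before detection reagent.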
# [4] = Primary fluorescence-based thiol-reactive (MSTI) qHTS assay for identification of artifact compounds. (AID 1845221); note: potency is the fitted concentration of half-maximal effect;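 note: thiol-reactive compounds lower the probe fluorescence signal; nearly all actives have a fitted effect of over 65% in size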
# Method in brief: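 One-hour, room-temperature, dark incubation of compound with 4 uM MSTI in PBS (pH 7.4, 2% DMSO) precedes a fluorescence read at 525 nm excitation, 598 nm emission; Hill-equation fitting yields concentration-response values.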
# [5] = qHTS of pediatric cancer cell lines to identify multiple opportunities for drug repurposing: Primary screen for BT-37 cells (AID 1347094); note: potency is the fitted concentration of half-maximal effect
# Method in brief: (§2)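 Plated cells (500-1,000 per well, growth media) were allowed to settle for 5 hours, treated with compound dilutions for 48 hours, then lysed with CellTiter-Glo for 15 min at room temperature before luminescence reading.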
# [6] = qHTS of pediatric cancer cell lines to identify multiple opportunities for drug repurposing: Primary screen for Rh41 cells (AID 1347108);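 note: luminescence drop marks cytotoxic hits; nearly all actives have a fitted effect of over 70% in size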
# Method in brief: as §2
# [7] = qHTS of pediatric cancer cell lines to identify multiple opportunities for drug repurposing: Primary screen for NB1643 cells (AID 1347099); note: nearly all actives have a fitted effect of over 50% in size; note: potency is the fitted concentration of half-maximal effect
# Method in brief: as §2
# CAOV3 = assay: Primary qHTS to identify gynecologic anti-cancer compounds using libraries of approved drugs and bioactive compounds (AID 1345084); conditions: Gynecologic cancer cell panel viability, ATPlite luminescence, 48 h; series mostly up to 57.5 µM; note: nearly all actives have a fitted effect of over 55% in size; note: potency is the fitted concentration of half-maximal effect
# Method in brief: as §1
# Hek293T = assay: as above; conditions: Gynecologic cancer cell panel viability, ATPlite luminescence, 48 h, control line for the selectivity index; series mostly up to 57.5 µM
# Method in brief: as §1
# astro = assay: Drug repurposing screens with cells derived from glioblastoma tumor samples (AID 1345199); conditions: viability, ATP luminescence, 48 h; series mostly up to 45.9 µM; note: potency is the fitted concentration of half-maximal effect; nearly all actives have a fitted effect of over 40% in size
# Method in brief: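 Primary testing used CD133+ neurospheres from four GBM patients, seven concentrations, 48 h exposure and ATP-based viability; confirmation added three slower-growing patient lines.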
# [8] = qHTS of pediatric cancer cell lines to identify multiple opportunities for drug repurposing: Primary screen for A673 cells (AID 1347092); conditions: A673 Ewing sarcoma viability, CellTiter-Glo ATP luminescence, 48 h; activity change, negative = cytotoxic: at 46 µM (top of the series); note: potency is the fitted concentration of half-maximal effect; nearly all actives have a fitted effect of over 45% in size
# Method in brief: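 A673 cells (500-1,000 cells/well) were treated 48 hours at 37 degrees C with compounds at 11-point (0.78 nM to 46 µM) or 8-point (0.59 nM to 46 µM) dilutions. Viability read by CellTiter-Glo luminescence; concentration-response curves fitted.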
# [9] = target: Cytochrome P450 2C9 (Homo sapiens) (UniProt P11712); assay: Cytochrome P450 family 2 subfamily C member 9 (CYP2C9) small molecule antagonists: luciferase biochemical (cell-free) qHTS assay (AID 1645842; active = well fitted curve in the direction sought with a large enough effect in the repeat runs; inconclusive = weak or mixed curves; inactive = no such curve, though single readings can be large; an effect the other way counts as inactive or inconclusive)
# UniProt P11712, sequence (P11712 whole entry, looked up): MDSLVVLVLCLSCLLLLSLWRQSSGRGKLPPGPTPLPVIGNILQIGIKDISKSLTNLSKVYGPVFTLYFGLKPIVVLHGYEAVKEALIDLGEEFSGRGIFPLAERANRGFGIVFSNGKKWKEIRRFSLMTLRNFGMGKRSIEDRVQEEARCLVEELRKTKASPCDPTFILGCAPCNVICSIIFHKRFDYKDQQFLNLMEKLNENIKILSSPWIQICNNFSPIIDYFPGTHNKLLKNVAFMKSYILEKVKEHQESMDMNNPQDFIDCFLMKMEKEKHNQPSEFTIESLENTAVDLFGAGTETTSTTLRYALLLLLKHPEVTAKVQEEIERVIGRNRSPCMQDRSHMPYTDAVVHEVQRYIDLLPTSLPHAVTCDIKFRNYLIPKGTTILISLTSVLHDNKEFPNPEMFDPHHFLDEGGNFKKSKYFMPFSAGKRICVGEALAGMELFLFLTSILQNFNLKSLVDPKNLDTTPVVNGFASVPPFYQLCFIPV
# Method in brief: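 P450-Glo CYP2C9 system: proluciferin substrate with enzyme in mix containing 0.4% BSA, 10 min at room temperature, then NADPH regeneration solution added and incubated 1 h at 37C. Detection reagent stopped reaction; luminescence read after 20 min as RLU.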
# MKL-1 = assay: qHTS assay to identify novel small-molecules to repurpose for Merkel cell carcinoma treatment (AID 1296009); conditions: MCC and control cell lines, CellTiter-Glo viability, 72 h; activity change, negative = cytotoxicity: at 46 µM (top of the series); note: nearly all actives have a fitted effect of over 60% in size; note: potency is the fitted concentration of half-maximal effect
# Method in brief: (§3)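 Luminescence from CellTiter-Glo, read 10 min after addition at room temperature, reported viability following a 72 hr, 37 degree celsius treatment with NPC or MIPE compounds in titration; values normalized to plate controls.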
# UISO = assay: as above; conditions: MCC and control cell lines, CellTiter-Glo viability, 72 h; activity change, negative = cytotoxicity: at 46 µM (top of the series)
# Method in brief: as §3
# CP297 = assay: qHTS profiling for inhibitors of Plasmodium falciparum proliferation (AID 504749); note: potency is the fitted concentration of half-maximal effect; nearly all actives have a fitted effect of over 60% in size; conditions: P. falciparum in erythrocytes, SYBR Green DNA, 72 h; series mostly up to 28.7 µM
# Method in brief: (§4)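 Fluorescence of SYBR Green-bound parasite DNA, read at 485/535 nm, served as the growth measure. Infected erythrocytes were cultured with compound 72 h; artemisinin (0.29 uM) and DMSO wells defined the normalization range.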
# DIV17 = assay: as above; conditions: P. falciparum in erythrocytes, SYBR Green DNA, 72 h; series mostly up to 28.7 µM
# Method in brief: as §4
# P93_24 = assay: as above; conditions: P. falciparum in erythrocytes, SYBR Green DNA, 72 h; series mostly up to 28.7 µM
# Method in brief: as §4
# Tags give direction and shape of the fitted curve.
compound,measurement,setting,value
CCC(C)C(N)C1=NC(C(=O)N[C@@H](CC(C)C)C(=O)N[C@H](CCC(=O)O)C(=O)N[C@H](C(=O)N[C@H]2CCCCNC(=O)[C@H](CC(N)=O)NC(=O)[C@@H](CC(=O)O)NC(=O)[C@H](Cc3cnc[nH]3)NC(=O)[C@@H](Cc3ccccc3)NC(=O)[C@H]([C@@H](C)CC)NC(=O)[C@@H](CCCN)NC2=O)[C@@H](C)CC)CS1 (some centres undefined) (X1-L[dE]IK[dOrn]I[dF]H[dD]N; lactam 4-C),Potency,[1],"inconclusive: 7 µM [inhibitor, partial curve] and inconclusive: 10 µM [inhibitor, single point]"
same,Potency,Tov-21-G,inactive
CC(C)=C1CC2C(CCC2(C)O)C(C)(O)CC1=O (centres undefined),Potency,Tov112D,inactive
CCN1CCCC(OC(=O)C(c2ccccc2)c2ccccc2)C1 (centres undefined),Potency,[2],inactive
CC(C)=CCC[C@](C)(O[C@@H]1O[C@H](CO[C@@H]2O[C@@H](CO)[C@H](O)[C@H]2O)[C@@H](O)[C@H](O)[C@H]1O)[C@H]1CC[C@]2(C)[C@@H]1[C@H](O)C[C@@H]1[C@@]3(C)CC[C@H](O[C@@H]4O[C@H](CO)[C@@H](O)[C@H](O)[C@H]4O[C@@H]4O[C@H](CO)[C@@H](O)[C@H](O)[C@H]4O)C(C)(C)[C@@H]3CC[C@]12C,Potency,PA-1,"inconclusive: 1 µM [rising, partial curve, poor fit]"
same,Potency,Tov112D,inactive
COc1c(F)cccc1C(=O)N1C[C@@H](C)CC[C@H]1CNc1ccc(Br)cn1,Potency,[3],"inconclusive: 19 µM [inhibitor, partial curve, poor fit]"
COc1ccc(-c2c(C)nn3c(NCCN4CCOCC4)cc(C)nc23)cc1OC,Potency,[1],"inconclusive: 22.7 µM [inhibitor, partial curve, poor fit]"
same,Potency,[4],"inconclusive: 2.38 µM [inhibitor, full curve]"
O=S(=O)(Cc1ccccc1)Nc1ccc(-c2ccc3c(cnn3-c3ccc(F)cc3)c2)c(C(F)(F)F)c1,Potency,[1],inactive
same,Potency,Tov-21-G,inactive
same,Potency,Tov112D,inactive
CC1(C)C=Cc2c(ccc3c2[N+]([O-])=C2C3(O)CC34NC(=O)C5(CCCN5C3=O)CC4C2(C)C)O1 (centres undefined),Potency,[4],active: 4.12 µM
Cc1cc(OCCCS(C)(=O)=O)cc(C)c1-c1cccc(COc2ccc3c(c2)OCC3CC(=O)O)c1 (centres undefined),Potency,[3],"inconclusive: 37.9 µM [inhibitor, single point]"
same,Potency,PA-1,"inconclusive: 1.78 µM [rising, partial curve, poor fit]"
CC1CCC2C(C(=O)O)=CC3(O)CC(C)(C)CC123 (centres undefined),Potency,[4],"inconclusive: 21.2 µM [inhibitor, partial curve]"
same,Potency,PA-1,"inconclusive: 31.6 µM [rising, partial curve, poor fit]"
O=C1[C@H](O[C@@H]2O[C@H](CO)[C@@H](O)[C@H](O)[C@H]2O)Oc2ccccc2N1O,Potency,[4],"inconclusive: 14.7 µM [inhibitor, partial curve]"
CC1(C)CCC(C)(C)c2cc3c(cc21)Sc1ccccc1N=C3c1ccc(C(=O)O)cc1,Potency,[3],"inconclusive: 37.9 µM [inhibitor, single point]"
same,Potency,[1],inactive
CC(=O)c1cc2c(cc1O)OC(C)(C)C=C2,Potency,[1],inactive
COc1ccc(NC(=O)c2ccc(C(=N)N(C)C)cc2)c(C(=O)Nc2ccc(Cl)cn2)c1,Potency,[4],inactive
COc1nc2sc(C(=O)NC3CC3)c(N)c2c(C)c1Cl,Potency,[4],inactive
Cc1nn(C)c(COc2ccc(N3CCN(S(=O)(=O)N(C)C)CC3)cc2)c1-c1cccc2c(CCCOc3cccc4ccccc34)c(C(=O)O)n(CCN3CCOCC3)c12,Potency,[4],inactive
CC(C)(C)NCC(O)c1cc(O)cc(O)c1 (centres undefined),Potency,[5],inactive
same,Potency,[6],inactive
same,Potency,PA-1,inactive
O=C(CCCCCCC(=O)Nc1ccccc1)NO,Potency,[5],active: 5.5 µM and active: 7.69 µM
same,Potency,[7],active: 944 nM and active: 1.32 µM
same,Potency,[4],"inconclusive: 11.9 µM [inhibitor, partial curve]"
same,Potency,CAOV3,"inconclusive: 2.24 µM [cytotoxic, full curve, poor fit] and inconclusive: 28.2 µM [cytotoxic, partial curve, poor fit]"
same,Potency,Hek293T,"inconclusive: 3.55 µM [cytotoxic, full curve] and inconclusive: 14.1 µM [cytotoxic, partial curve, poor fit]"
same,Potency,Tov-21-G,active: 11.2 µM and active: 5.01 µM
same,Potency,Tov112D,active: 7.08 µM and active: 11.2 µM
same,Potency,astro,active: 10 µM and active: 8.91 µM
C=C1C(=C/C=C2\CCC[C@]3(C)[C@@H]([C@H](C)/C=C/[C@@H](O)C4CC4)CC[C@@H]23)C[C@@H](O)C[C@@H]1O,Potency,[8],"inconclusive: 26.6 µM [cytotoxic, single point]"
same,Potency,[5],"inconclusive: 38.9 µM [cytotoxic, single point]"
same,Potency,[7],"inconclusive: 16.8 µM [cytotoxic, partial curve, poor fit]"
same,Potency,[2],"inconclusive: 18.8 µM [cytotoxic, single point]"
same,Potency,[9],"inconclusive: 30.9 µM [inhibitor, single point]"
same,Potency,MKL-1,"inconclusive: 21.1 µM [inhibitor, single point]"
same,Potency,UISO,"inconclusive: 29.9 µM [inhibitor, single point]"
same,Potency,PA-1,inactive
same,Potency,astro,"inconclusive: 12.6 µM [inhibitor, partial curve]"
NCCNc1cccc2ccccc12,Potency,CP297,"inconclusive: 12 µM [inhibitor, single point]"
same,Potency,DIV17,active: 15.1 µM
same,Potency,P93_24,"inconclusive: 17.8 µM [inhibitor, single point]"
same,Potency,MKL-1,"inconclusive: 26.6 µM [inhibitor, single point]"
CCCCCC=CCC=CCCCCCCCC(=O)OCC,Potency,[8],"inconclusive: 26.6 µM [cytotoxic, single point]"
same,Potency,[7],inactive
same,Potency,[3],"inconclusive: 27.5 µM [inhibitor, single point]"
same,Potency,MKL-1,"inconclusive: 26.6 µM [inhibitor, single point]"
CO/N=C(/C(=O)N[C@@H]1C(=O)N2C(C(=O)OCOC(=O)C(C)(C)C)=C(C)CS[C@H]12)c1csc(N)n1,Potency,[1],"inconclusive: 35.5 µM [inhibitor, single point]"
same,Potency,MKL-1,inactive
